# In all, about 52,000 compounds went through this assay and about 1,700 (3.3%) were called active. Cut-off read from the data, not from the text of the source: active = survival mostly below about 52% (no sharp cut-off); inactive = mostly above about 56%. The list shows a part of the results.
# Test system: Wild type
# Assay: growth inhibition of S. aureus wild type versus tarO mutant, primary screen, teichoic acid synthesis inhibitors, RN4220, OD600 (AID 463173)
# Conditions: S. aureus RN4220 wild type/DeltatarO growth, OD600, 18 h, hits give low values, screened at 18.75 µg/mL (by protocol)
row,SMILES,survival
1,Cc1ccc(NC(=O)C(Cc2c[nH]c3ccccc23)NC(=O)OC(C)(C)C)c(C)c1 (configuration not stated),inactive: 66%
2,Cc1cc(C)cc(NC(=O)NCCc2c(C)nn(C)c2C)c1,inactive: 57%
3,O=C1c2cccc3c(N4CCOCC4)ccc(c23)C(=O)N1c1ccccc1,inactive: 100%
4,CCOc1cc2sc(N3CCC(C(=O)Nc4ccc(CC)cc4)CC3)nc2cc1Br,inactive: 80%
5,CC(=O)N1CCCc2cc(S(=O)(=O)N3CCCC(C(=O)N4CCN(c5cccc(Cl)c5)CC4)C3)ccc21 (configuration not stated),inactive: 68%
6,CCOc1ccc(CNC(=O)c2cccc(NC(=O)N3CCSc4ncccc43)c2)cc1OC,inactive: 69%
7,CCc1ccc(C(=O)c2cn(CC(=O)Nc3ccc(Cl)cc3)c3cc4c(cc3c2=O)OCO4)cc1,inactive: 134%
8,CC(=O)N1CCN(S(=O)(=O)c2ccc(C)cc2)C1C(C)C (configuration not stated),inactive: 113%
9,CCC(Cn1nnc2ccccc2c1=O)NC(=O)Nc1cc(C)cc(C)c1 (configuration not stated),inactive: 86%
10,CC(C)C(=O)Nc1nnc2n1CCS2,inactive: 75%
11,Cc1nc(N2CCCC2)c2c(C(=O)N3CCN(c4ccccc4)CC3)c(C)oc2n1,inactive: 71%
12,Cc1cc2c(n1-c1ccc(C(=O)NCCc3ccc(Cl)cc3)cc1)CCCC2,inactive: 146%
13,CC(C)c1nn2c(=O)cc(COC(=O)c3cccc(NC(=O)COc4ccc(F)cc4)c3)nc2s1,inactive: 72%
14,Cc1ccc(C)c(CSc2nnc3[nH]c(=O)cc(C)n23)c1,inactive: 76%
15,Cc1ccc(S(=O)(=O)n2nc(C)c(S(=O)(=O)N3CCCCCC3)c2C)cc1,inactive: 129%
16,COc1ccc(C)cc1NC(=O)c1noc2c1CSc1ccccc1-2,inactive: 86%
17,COc1ccc(C2C(C(=O)Nc3ccccc3)=C(C)Nc3c(C(=O)Nc4ccccc4)cnn32)cc1 (configuration not stated),inactive: 134%
18,CS(=O)(=O)N1CCc2cc(C(=O)N3CCN(c4cccc(Cl)c4)CC3)ccc21,inactive: 91%
19,O=C(CN1CCC(N2CCCCC2)CC1)NC12CC3CC(CC(C3)C1)C2,inactive: 105%

row,SMILES,survival
1,COCCNC(=O)CCC(=O)NNc1nc2ccccc2c2nc(C)nn12,inactive: 87%
2,CCOc1ccccc1NC(=O)c1c(NC(=O)COc2ccc(Cl)cc2)sc2c1CCCCC2,inactive: 75%
3,Cc1ccc(C)c(CSc2nc(-c3ccccc3F)nc3c2Cc2c(CO)cnc(C)c2O3)c1,inactive: 114%
4,CCC1CC(/C(C)=N/NC(N)=O)OC1=O (configuration not stated),inactive: 98%
5,Cc1ccc(C)c(N2CCN(C(=O)c3cn(CC(C)C)c(=O)c4c3c3ccccc3n4C)CC2)c1,active: 17%
6,COCCCNc1nc(NCc2ccccc2OC)c2cnn(C)c2n1,inactive: 136%
7,COc1ccc(Br)cc1C1C(C(=O)Nc2ccc(C)cc2C)=C(C)Nc2ncnn21 (configuration not stated),inactive: 64%
8,Cc1ccc(NC(=O)C2(c3cccs3)CCOCC2)cc1Cl,inactive: 75%
9,COc1ccc(NC(=O)Cn2c(=O)n(-c3cc(C)cc(C)c3)c(=O)c3oc4ccccc4c32)cc1OC,inactive: 69%
10,O=C(NCCc1ccccc1)c1nn(-c2ccccc2F)nc1CO,inactive: 90%
11,Cc1ccc2c(CNCCc3ccccc3)c(C(=O)O)n(Cc3ccccc3C)c2c1,active: 1%
12,COc1cc(CN2CCN(C3CCCCCC3)CC2)cc(OC)c1OC,inactive: 104%
13,Cc1ccccc1N1CCN(S(=O)(=O)c2nnc(NC(=O)c3ccc(C(C)C)cc3)s2)CC1,inactive: 71%
14,COc1cc(NC(=O)c2cc(C3CC3)nc3c2c(C)nn3-c2ccccc2)cc(OC)c1,inactive: 81%
15,COC(=O)Cn1c(=O)c2cccn2c2ccc(F)cc21,inactive: 83%
16,Cc1cccc(N(C)c2nc3ccccc3c3nnc(C)n23)c1,inactive: 128%
17,CCOc1ccc(C(=O)Cn2c(=O)n3nc(CCn4nc(C)cc4C)nc3c3cc(OC)c(OC)cc32)cc1,inactive: 120%
18,CCS(=O)(=O)N1CCCC(C(=O)NCCOC)C1 (configuration not stated),inactive: 68%
19,Cc1ccc(NC(=O)CSc2nnc(-c3ccc([N+](=O)[O-])cc3)o2)c(C)c1,inactive: 90%

row,SMILES,survival
1,Cc1ccc(C(=O)c2cn(CC(=O)Nc3ccc(C(C)C)cc3)c3nc(C)ccc3c2=O)cc1,inactive: 66%
2,CCCCCn1c(NCc2ccc(OC)cc2)nc2ccccc21,active: -2%
3,CCOc1ccc(-c2nc3c(c(SCC(=O)Nc4ccccc4C)n2)Cc2ccccc2O3)cc1,inactive: 126%
4,Cc1cc(C)n(-c2nc3ccccc3nc2Nc2ccc(N(C)C)cc2)n1,active: 2%
5,CCC(C(=O)NC1CCCC1)N(C(=O)Cn1nnc(-c2ccc(C)cc2)n1)c1ccc2c(c1)OCCO2 (configuration not stated),inactive: 108%
6,COc1ccccc1OC(C)C(=O)Nc1cccc(-c2nc3ccccc3s2)c1 (configuration not stated),inactive: 29%
7,COc1ccc(-n2nc(C(=O)Nc3ccccn3)c3c4ccccc4n(C)c3c2=O)cc1,inactive: 72%
8,CCOC(=O)c1ccc(NC(=O)c2cnc3c(-c4ccc(F)cc4)c(C)nn3c2C)cc1,inactive: 120%
9,Cc1cc(C)cc(NC(=O)Cn2c(-c3cncs3)nc3ccccc32)c1,inactive: 63%
10,Cc1ccccc1NC(=O)CC(NCc1cccnc1)C(=O)O (configuration not stated),inactive: 89%
11,CCCCN(C(=O)c1cc(OC)c(OC)c(OC)c1)C1=CC2CCC(C1)N2C (configuration not stated),inactive: 115%
12,CCCCN(C)C(=O)C1CCN(Cc2ccc(OCc3ccccc3)c(OC)c2)CC1,inactive: 108%
13,Cc1ccc(Cl)cc1NC(=O)C1CCN(c2nnc(C)c3c(C)n(-c4ccccc4)nc23)CC1,inactive: 71%
14,CCc1ccc(CNC(=O)c2cnc3sc(N4CCCC4)nn3c2=O)cc1,inactive: 71%
15,Cc1ccccc1CNC(=O)c1ccc2c(c1)c(C)c(C)n2C,inactive: 58%
16,CN(C)c1ccc(CNC(=O)c2ccc(Cn3c(SCc4ccccc4)nc4cccnc43)cc2)cc1,inactive: 85%
17,Cc1cc(C)c(Cn2c3ccccc3c3cnn(CC(=O)NCc4cccs4)c(=O)c32)c(C)c1,inactive: 76%
18,Cc1ccccc1Cn1nnc2c(=O)[nH]c(C3CCN(C(=O)c4ccc(F)cc4)CC3)nc21,inactive: 74%
19,CCCNC(=S)N1CCC(NC(=O)Nc2ccc(C)cc2)CC1,inactive: 102%
